Assay results published in PubChem BioAssay AID624417 (National Center for Advancing Translational Sciences (NCATS), 2012).
Values joined by “and” are separate entries in the source; they are usually repeats but may differ in a detail not shown here. Identical values can stand only once. In all, about 410,000 compounds went through this assay and about 6,400 (1.6%) were called active. Inconclusive results, whose numbers are uncertain, are shown with a selection of clear calls. Calls follow the shape of the dose curve; as a rule, active = well fitted inhibition curve with a large enough effect; inconclusive = small, poorly fitted or top-dose-only effect; inactive = no such curve, though single readings can be large or run the other way. Potencies of inconclusive entries are doubtful fits and often do not repeat.

Molecular target: Glucagon-like peptide 1 receptor (Homo sapiens) (UniProt P43220)
UniProt P43220, sequence (P43220 whole entry, looked up): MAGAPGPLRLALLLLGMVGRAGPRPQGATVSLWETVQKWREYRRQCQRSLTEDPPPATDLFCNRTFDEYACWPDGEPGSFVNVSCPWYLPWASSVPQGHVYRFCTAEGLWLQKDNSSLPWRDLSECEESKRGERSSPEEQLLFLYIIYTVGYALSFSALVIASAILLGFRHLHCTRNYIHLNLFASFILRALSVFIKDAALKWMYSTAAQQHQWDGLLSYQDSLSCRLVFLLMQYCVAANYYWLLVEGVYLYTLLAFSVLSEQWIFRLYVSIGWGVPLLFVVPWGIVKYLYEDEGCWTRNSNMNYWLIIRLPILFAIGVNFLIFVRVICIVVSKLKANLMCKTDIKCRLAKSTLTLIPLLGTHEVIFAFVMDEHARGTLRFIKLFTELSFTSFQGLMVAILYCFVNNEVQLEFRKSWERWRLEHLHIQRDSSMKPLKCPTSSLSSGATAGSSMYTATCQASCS
Assay: qHTS of GLP-1 Receptor Inverse Agonists (Inhibition Mode); also: nearly all actives have a fitted effect of over 55% in size
Settings: HEK293 GLP-1R CRE-luciferase, luminescence, 24 h, GLP-1R form is constitutively active; activity change, negative = inhibition: at 38.3 µM (top of the series) unless noted
Summary of the method: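 HEK293 cells stably co-expressing constitutively active GLP-1R and a cAMP-responsive luciferase reporter were seeded in DMEM with 10% Nu serum, given compounds after 12 h, and incubated 24 h at 37 deg C. Luminescence was then read.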
% is scaled to controls: 0 for no effect and ±100 for the full control effect; potency is read from the fitted curve at half-maximal effect; tags tell the direction and shape of the fitted curve.

Compound | Potency | activity change, negative = inhibition
COc1cccc(OCc2cc(C(=O)N(C)Cc3nc4ccccc4[nH]3)no2)c1 | inconclusive: 10 µM [inhibitor, partial curve, poor fit] | –
Cc1c(Cl)cccc1NC(=O)COC(=O)CCc1nc2ccccc2n1-c1ccccc1 | inconclusive: 28.2 µM [inhibitor, single point] | –
O=C(Nc1nccs1)c1ccc(-c2ccc(Cl)cc2)o1 | inconclusive: 11.2 µM [inhibitor, single point] | –
OCCCN1CCN(CCOc2ccccc2-c2ccccc2)CC1 | inconclusive: 28.2 µM [inhibitor, single point] | –
Cc1ccc(OCc2nc(-c3ccc(Cl)cc3)n[nH]2)cc1 | inconclusive: 22.4 µM [inhibitor, single point] | –
CCc1ccc(NC(=S)NCc2ccccc2)cc1 | – | inactive: 10.5%
O=C(NCc1cc(Br)cc(Br)c1OC(=O)c1ccccc1[N+](=O)[O-])c1ccccc1 | inconclusive: 20 µM [inhibitor, single point] | –
O=C(CN1CCN(S(=O)(=O)c2ccc(Br)cc2)CC1)Nc1ccccc1F | inconclusive: 28.2 µM [inhibitor, single point] | –
O=C(O)/C=C\C(=O)Nc1ccccc1C#Cc1ccc(Br)cc1 | inconclusive: 10 µM [inhibitor, single point] | –
NNC(=O)CNC(c1ccccc1)c1cc(Cl)ccc1NC(=O)c1ccccc1 (centres undefined) | inconclusive: 10 µM [inhibitor, single point] | –
c1ccc(C2[C@H]3CN(Cc4cccnc4)[C@H](c4ccccc4)C34CC2(c2cccnc2)C4)cc1 (some centres undefined) | inconclusive: 11.2 µM [inhibitor, partial curve, poor fit] | –
O=C(O)CC/C(=N\NC(=O)CNC(=O)c1ccc(F)cc1)c1ccccc1 | – | inactive: 2.12%
COc1nc(NCc2ccco2)nc(N2CCC(C)CC2)n1 | inconclusive: 7.08 µM [inhibitor, partial curve, poor fit] | –
COCCN=C1Sc2nc3cc(C)c(C)cc3cc2CN1Cc1cccs1 | inconclusive: 10 µM [inhibitor, partial curve] | –
C=CCC[C@H](Cc1ccc(F)cc1)C(=O)OC[C@@H](C)NC(=O)[C@H](CC=C)CC(=O)N(CCO)Cc1ccccc1 | inconclusive: 8.91 µM [inhibitor, partial curve, poor fit] | –
COc1ccccc1CC1(C)C(=O)Nc2ccc(OC(F)(F)F)cc21 (centres undefined) | inconclusive: 31.6 µM [inhibitor, partial curve, poor fit] | –
CCCCc1cc(=O)oc2cc(C)c3c(C(C)(C)C)coc3c12 | inconclusive: 2.51 µM [inhibitor, partial curve, poor fit] | –
CCOc1ccc(C(=O)Nc2ccc(CN3CCOCC3)cc2)cc1Cl | inconclusive: 12.6 µM [inhibitor, single point] | –
COc1ccc(C)cc1NC(=O)N1CCN(S(=O)(=O)c2ccc3c(ccn3C)c2)CC1 | – | inactive: 2.31%
Cc1ccc(C)n1-n1cnc2sc3c(c2c1=O)CCCCC3 | inconclusive: 22.4 µM [inhibitor, single point] | –

Compound | Potency | activity change, negative = inhibition
N#CCSc1nnc(-c2ccccc2)c(-c2ccccc2)n1 | inconclusive: 8.91 µM [inhibitor, partial curve, poor fit] | –
O=S(=O)(N=C(NS(=O)(=O)c1ccc(Cl)cc1)c1ccccc1)c1ccc(Cl)cc1 | inconclusive: 14.1 µM [inhibitor, single point] | –
CCN(CC)c1ccc(C2C3CCCCC3(O)CCN2CC(=O)N2CCCCC2)cc1 (centres undefined) | inconclusive: 28.2 µM [inhibitor, single point] | –
COc1ccc(-n2cc(-c3ccccc3)c3c(N4CCN(CCO)CC4)ncnc32)cc1 | inconclusive: 7.08 µM [inhibitor, partial curve, poor fit] | –
COc1ccccc1NNC(=O)C(O)(c1ccccc1)c1ccccc1 | inconclusive: 8.91 µM [inhibitor, partial curve, poor fit] | –
Cc1nc(N2N=C(c3ccc(Cl)cc3)CC2c2ccco2)sc1C(=O)N(C)C (centres undefined) | inconclusive: 28.2 µM [inhibitor, single point] | –
CC(=O)/C(=N\Nc1ccc(Cl)cc1Cl)Sc1nnc(-c2ccccc2)n1-c1ccccc1 | – | inactive: -15.6%
Cc1ccc(S(=O)(=O)Nc2ccc3oc(=O)sc3c2)c(C)c1 | inconclusive: 28.2 µM [inhibitor, single point] | –
O=C(NCC(=O)N1CCN(c2ncccn2)CC1)c1ccccc1F | – | inactive: 2.99%
COc1ccc(S(=O)(=O)N2CCN(C(=O)c3c(C)nn(-c4ccccc4)c3Cl)CC2)cc1 | – | inactive: -12.5%
CC1CN(C(=O)NCc2ccccc2)c2cc(Cl)ccc2O1 (centres undefined) | inconclusive: 11.2 µM [inhibitor, single point] and inconclusive: 14.1 µM [inhibitor, single point] | –
O=C(Nc1cccc(/C=C/c2ccccn2)c1)c1ccc(-n2cncn2)c([N+](=O)[O-])c1 | inconclusive: 14.1 µM [inhibitor, partial curve, poor fit] | –
O=C(N/N=C/c1ccc(Cl)cc1)c1cc2c(s1)-c1ccccc1CC2 | inconclusive: 2.82 µM [inhibitor, full curve, poor fit] | –
CC(=O)NNc1ncnc2c1cnn2-c1ccc(C)c(Cl)c1 | – | inactive: 12.4%
COc1ccc(CN2CCCC(CO)(Cc3ccc(F)cc3)C2)cc1C (centres undefined) | inconclusive: 12.6 µM [inhibitor, partial curve, poor fit] | –
O=C(Nc1cc(Cl)ccc1Oc1ccccc1)C1=COCCO1 | inconclusive: 22.4 µM [inhibitor, single point] | –
Cc1ccc(C)c(CC(=O)N2CCCC(c3cc(C(=O)Nc4ccccc4Cl)no3)C2)c1 (centres undefined) | inconclusive: 14.1 µM [inhibitor, single point] | –
CCN(CC(=O)Nc1ccc(C)c(S(=O)(=O)N(C)C)c1)Cc1ccccc1 | inconclusive: 14.1 µM [inhibitor, single point] | –
CCCn1c(=O)[nH]c(=O)c2c1nc(-c1ccc3c(c1)OCCO3)n2CCN1CCOCC1 | – | inactive: 9.71%
